Measurements: PubChem BioAssay AID1508623 (National Center for Advancing Translational Sciences (NCATS), 2021)
In all, about 48,000 compounds went through this assay and about 450 (0.94%) were called active. Roughly 19% stayed inconclusive and do not appear here. Calls follow the shape of the dose curve; as a rule, active = well fitted inhibition curve with a large enough effect; inconclusive = small, poorly fitted or top-dose-only effect; inactive = no such curve, though single readings can be large or run the other way. Some of the results follow.

Assay: Primary qHTS for Identification of Small Molecule Inhibitors of Huntingtin Promoter Activity; also: nearly all actives have a fitted effect of over 50% in size
Conditions: HEK293 HTT promoter firefly luciferase reporter (activity 0% = vehicle and -100% = no light), 24 h; series mostly up to 57.5 µM; activity change, negative = inhibition: at the top concentration
Summary of the method: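 Luminescence was read after Dual-Glo reagent and a 10 min room-temperature incubation. Values were normalized to vehicle (0% activity) and zero RLU (-100% activity). Reporter HEK293 cells had been exposed to compounds (up to 57.5 uM final) for 24 h.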
Potency is read from the fitted curve at half-maximal effect.

Activity change, negative = inhibition, inactive:
Nc1nc2nc(-c3ccccc3)cc(=O)n2[nH]1 -2.37%
COc1ccc(NC(=O)CN2CCCN(Cc3ccccc3)S2(=O)=O)cc1 2.46%
Cc1ccc(NC(=O)C2CCN(S(=O)(=O)c3ccc4c(c3)CCCC(=O)N4)CC2)c(Br)c1 -28.1%
Fc1ccc(CNc2nc(-c3ccc(Cl)cc3)cc(C(F)(F)F)n2)cc1 -28.9%
Cc1cccc(NS(=O)(=O)c2ccc3c(c2)n(C)c(=O)n3C)c1C -23.5%
CC[N+](CC)(CC)CCOc1cccc(OCC[N+](CC)(CC)CC)c1OCC[N+](CC)(CC)CC
O=c1oc2ccccc2cc1-c1nc(-c2cccc(Cl)c2)cs1 -17.4%
CCN(CC)C(=O)Cn1cc(SCC(=O)Nc2cc(OC)ccc2OC)c2ccccc21 -26.8%
Cc1ccc(Cl)cc1N1CCN(C(=O)c2sc3nc4n(c(=O)c3c2C)CCC4)CC1 -0.347%
CN(C)CCNC(=O)c1ccc2nc(Cc3ccccc3)oc2c1 -3%
COc1ccc(Cl)cc1NC(=O)CSc1cc(C)[nH]c(=O)n1 -13.8%
Cc1cccn2c(=O)cc(CSc3nnc(NC(=O)C(C)C)s3)nc12 -7.78%
CCC(CC)C(=O)Nc1ccc2nc(SCC(=O)N3CCOCC3)sc2c1 -19.5%
Cc1ccc(CSc2nc3ccc(NC(=O)CC(C)C)cc3s2)cc1 -11%
CCOC(=O)c1noc2ncn(Cc3ccc([N+](=O)[O-])cc3)c(=O)c12 5.75%
COc1ccc(C(=O)NCC(c2ccc(N(C)C)cc2)N2CCOCC2)cc1 (stereo not drawn) -10.7%
COc1ccc(NC(=O)CSC2=Nc3ccccc3C3=NC(CCC(=O)NC4CCCCC4)C(=O)N23)cc1Cl (stereo not drawn) -9.26%
COc1ccc(-c2noc(-c3nnn(-c4ccc(C)cc4C)c3C)n2)cc1 12%
COc1ccc(S(=O)(=O)c2cn(C)c3cc(N4CCCCCC4)c(F)cc3c2=O)cc1 -2.04%
Cc1ccc(-n2nc(CO)c(C(=O)NCc3cccnc3)n2)cc1C -16.9%
O=C(Nc1cc(F)ccc1F)C1CCN(C(=O)c2cnn(-c3ccccc3)c2-n2cccc2)CC1 -27.8%
Cc1ccc(NC(=O)CSc2nncn2C)c(C)c1 11.2%
COc1ccc(Cl)c2sc(NC(=O)c3ccc(S(=O)(=O)N4CCCC4)cc3)nc12 3.83%
COc1ccccc1NC(=O)CSCc1cc(=O)c2cccc(Cl)c2[nH]1 -16.2%
COc1ccc(OC)c(C2CC(=O)Nc3c2c(=O)n(C)c2ncnn32)c1 (stereo not drawn) -1.77%
NCc1ccc(S(N)(=O)=O)cc1 -4.47%
CCc1ccc2occ(CC(=O)Nc3c(C(=O)c4ccccc4)oc4ccccc34)c2c1 -11.4%
Cc1ccc(CNC(=O)c2cc3sc(Cl)cc3n2C)cc1 -29.7%
Cc1ccc2nc(-c3ccc(Cl)c(NC(=O)COc4ccc([N+](=O)[O-])cc4)c3)oc2c1 -0.834%
O=C(Cn1c(=O)n(-c2ccccc2)c(=O)c2c3c(sc21)CCC3)c1ccc(Br)cc1 -8.73%
CC(C)CCNC(=O)CCCn1c(=O)c2cccn2c2ccccc21 7.31%
COc1cccc(NC(=O)c2cnc(SCC(=O)N3CCCc4ccccc43)n(C)c2=O)c1 -20.3%
CCN(C(=O)c1cc2c(=O)oc3ccccc3c2s1)c1ccccc1F -4.06%
Cc1noc(-c2ccc(-c3noc(-c4ccc(Cl)cc4)n3)cc2)n1 3.65%
Cc1ccc(C)c(CN2CCCN(Cc3ccccc3C)S2(=O)=O)c1 -5.06%
Cc1cc(C)cc(NC(=O)CN2C(=O)c3ccccc3Sc3ccc(C(=O)N4CCCC4)cc32)c1 -27.2%
O=C(CN1C(=O)CCc2cc(Br)ccc21)Nc1ccc(OC(F)(F)F)cc1 -17.6%
CCOC(=O)c1ccc(Nc2c(-c3ccc(N(C)C)cc3)nc3nc[nH]n23)cc1 -3.28%
COc1cccc(CNC(=O)c2nn(C)c3c2CSc2ccccc2-3)c1 -15%
COc1ccc(NC(=O)c2cnc3cc(C)ccn3c2=O)c(OC)c1 -6.09%
COc1ccc(Cn2c(=O)n(-c3ccc(C)cc3)c(=O)c3c2c2cc(C)ccc2n3C)cc1 -3.41%
COc1ccc(C)cc1NC(=O)Cn1nc(N2CCN(c3ccccc3OC)CC2)ccc1=O -24.4%
COc1ccccc1Cc1nc2ccccc2nc1SCC(=O)NCc1ccc(C)cc1 -5.85%
Cc1noc(C)c1S(=O)(=O)N(CC(=O)NCc1ccccc1)c1ccc(C(C)C)cc1 -20.2%
O=C(COCc1cc(-c2ccco2)on1)Nc1cc(Cl)ccc1O -26.2%
COc1ccc(-c2nc(SCC(=O)NC3CCCC3)c(-c3ccc(F)cc3)[nH]2)cc1OC -12.7%
O=C(Nc1ccc2oc(-c3cccnc3)nc2c1)c1ccccc1F -26.8% [at 11.5 µM]
CC(=C(CCOC(=O)C(C)C)SSC(CCOC(=O)C(C)C)=C(C)N(C=O)Cc1cnc(C)nc1N)N(C=O)Cc1cnc(C)nc1N 7.89%
COCCNC(=O)CCn1nc(-c2ccc(Cl)cc2)c2ccccc2c1=O -17.1% [at 11.5 µM]
COc1ccc(CC(=O)N2CCc3c([nH]c4ccccc34)C2c2ccc(SC)cc2)cc1 (stereo not drawn) -25.4%
CC1CCN(C(c2ccc(F)cc2)c2sc3nc(-c4ccco4)nn3c2O)CC1 (stereo not drawn) 0%
COc1ccc(C(=O)N2CCN(C(=O)COc3ccccc3)CC2)cc1OC -4.46%
O=C(c1ccc2c(c1)N(Cc1ccccc1)C(=O)c1ccccc1S2(=O)=O)N1CCOCC1 -6.14%
COc1ccc(NC(=O)C(NC(=O)/C=C\c2ccc3c(c2)OCO3)c2ccc(C)cc2)cc1 (stereo not drawn) -23.2%
CC/C(=C(\c1ccccc1)c1ccc(OCCN(C)C)cc1)c1ccccc1 -16.4%
COc1ccc(-c2nc3n(n2)C(c2ccc(O)cc2)C(C(=O)Nc2cccnc2)=C(C)N3)cc1OC (stereo not drawn) -11%
O=C(Nc1cccc(Br)c1)c1cc(S(=O)(=O)N2CCCCC2)c[nH]1 -23%
Cc1cc(S(=O)(=O)Nc2cc3c(cc2N2CCOCC2)n(C)c(=O)c(=O)n3C)ccc1F -7.72%
CCOc1ccc(CCNC(=O)NCc2noc3ccc(C)cc23)cc1 -17.6%
CCOCCc1nn2c(=O)cc(COC(=O)c3ccc(NC(=O)c4cccs4)cc3)nc2s1 -4.98%
CCCNC(=O)c1ccc(Cn2c(SCC(=O)NC(C)C)nc3ccccc3c2=O)cc1 -1.55%
COc1ccccc1CNc1nccn(-c2ccc(F)cc2)c1=O 3.26%
CCCn1c2ccccc2c2cnn(CC(=O)NCC3CCN(Cc4ccccc4C)CC3)c(=O)c21 -12.5%
COC(=O)CN1C(=O)C(O)(c2c(C)[nH]c3ccccc23)c2ccccc21 (stereo not drawn) -13.5%
COc1ccc(C(=O)Nc2nc(-c3ccc(Br)cc3)ns2)cc1 -18.8%
Cc1csc2nc(COc3ccc(NC(=O)c4ccccc4F)cc3)cc(=O)n12 0.12%
Cc1nn(Cc2ccccc2Cl)c(C)c1CN(C)CC(O)COc1ccc(Cl)cc1 (stereo not drawn) -17.6%
COc1ccc(NC(=O)Cn2c(=O)c3cccn3c3ccccc32)cc1 -6.56%
COc1ccc(S(=O)(=O)NCCc2sc(-c3cccnc3)nc2C)cc1 -8.38%
O=C(NC1CC(=O)N(c2ccc(F)cc2)C1)c1ccc(S(=O)(=O)N2CCOCC2)cc1 (stereo not drawn) -1.82%
Cc1ccc(C(=O)c2oc3ccccc3c2NC(=O)c2cc(-c3ccccc3)on2)cc1 6.99%
Cc1ccc(-n2ncc3c(Nc4ccc5c(c4)OCCO5)ncnc32)cc1Cl -5.9%
CCOCCCN1C(=O)CN(C2CCCCCC2)C(=O)C1c1ccc(OCC)c(OC)c1 (stereo not drawn) 18.8%
CCSc1nc(-c2ccccc2)nc2c1Cc1c(CO)cnc(C)c1O2 -14.3%
CCOC(=O)c1[nH]c(C)c(CCC(=O)N2CCN(c3ccc(OC)cc3)CC2)c1C -14.3%
O=C(O)CCC(=O)N1CCc2cc(S(=O)(=O)NCc3ccc(F)cc3)ccc21 -20%
COc1ccc(NC(=O)c2cccc3c(=O)c4c([nH]c23)CCCC4)cc1 -16.4%
Cc1ccc(C(C)C)c(OCC(=O)Nc2ccc3c(c2)nc(CCNC(=O)c2ccco2)n3C)c1 -9.91%
O=C(COc1ccccc1F)Nc1nnc(SCc2cc(=O)n3ccccc3n2)s1 -2.82%
CCOC(=O)c1cc2c(=O)n3ccccc3nc2n(CC2CCCO2)c1=NC(=O)c1cccc(C)c1 (stereo not drawn) -29.8%
Cc1ccccc1Cn1nnc2sc3c(c2c1=O)CCCC3 -7.67%
CCOC(=O)c1c(NC(=O)Nc2ccc(F)cc2)sc(C(=O)N(C)C)c1C -19.3%
COc1ccc(CCNC(=O)c2ccc3c(c2)N(Cc2ccccc2Cl)C(=O)c2ccccc2S3)cc1OC -19.5%
Cn1cc(CCCC(=O)NCc2cccc(Br)c2)c2ccccc21 -3.89%
CCc1nc2ccc(C(=O)NCc3ccccc3C)cc2nc1CC -4.2%
COc1ccc(-n2cc(-c3ccccc3)c3c(N4CCCC(C)C4)ncnc32)cc1 (stereo not drawn) -12.9%
CN=C(N)NC(=O)Nc1c(C)cccc1C 5.35%
O=c1c(NCc2cccs2)nccn1-c1ccccc1 21.9%
O=C(CS(=O)(=O)c1cccc2nsnc12)NCc1ccccc1Cl -1.49%
Cc1ccc(CN2c3ccccc3-c3nc(SCC(=O)NCc4ccccc4)ncc3S2(=O)=O)cc1 -24.3%
CCC(=O)C1=C(c2ccccc2)N(C(=O)CC)n2c(nnc2-c2ccccc2)S1 -12.5%
Cc1ccc(S(=O)(=O)NCCc2nnc3ccc(SCc4ccccc4F)nn23)cc1 -13.7%
CCCCCCc1cc2cc(-c3nnc(-c4cccc(Cl)c4)o3)c(=O)oc2cc1O -6.08%
Cc1ccc(NC(=O)c2oc3ccc(S(=O)(=O)N4CCCCC4)cc3c2C)c(C)c1 -16.2%
Cc1cccc(N2CCN(C(=O)C(C)n3nc(C)n4c(cc5occc54)c3=O)CC2)c1C (stereo not drawn) -19.9%
Cc1cc(C)c(NC(=O)c2c(C)oc3c2C2=NCCN2C=N3)c(C)c1 -6.15%
CCc1ccc(CNC(=O)Cn2nc(-c3ccc(Cl)cc3)ccc2=O)cc1 -29.4%

Potency, active:
CCN1C(=O)c2ccccc2Sc2ccc(NC(=O)Nc3cc(C)cc(C)c3)cc21 20 µM
